Test results published in PMC5342353.
Where two headings read alike, the source gives them in different places. Results are given in words; binding and its absence hold for the method and conditions named. For some assays here: In cells and extracts the contact can be indirect. Some binding calls cover weakened binding; strength is not graded here. For some assays here: Where a sequence is shown, tags or fusion partners need not be part of it.

Chains of the proteins cited; added tags and fusions are not shown. Lines headed by an entry give the natural chain unless they say otherwise; changes in a name come on top.
UniProt P78527: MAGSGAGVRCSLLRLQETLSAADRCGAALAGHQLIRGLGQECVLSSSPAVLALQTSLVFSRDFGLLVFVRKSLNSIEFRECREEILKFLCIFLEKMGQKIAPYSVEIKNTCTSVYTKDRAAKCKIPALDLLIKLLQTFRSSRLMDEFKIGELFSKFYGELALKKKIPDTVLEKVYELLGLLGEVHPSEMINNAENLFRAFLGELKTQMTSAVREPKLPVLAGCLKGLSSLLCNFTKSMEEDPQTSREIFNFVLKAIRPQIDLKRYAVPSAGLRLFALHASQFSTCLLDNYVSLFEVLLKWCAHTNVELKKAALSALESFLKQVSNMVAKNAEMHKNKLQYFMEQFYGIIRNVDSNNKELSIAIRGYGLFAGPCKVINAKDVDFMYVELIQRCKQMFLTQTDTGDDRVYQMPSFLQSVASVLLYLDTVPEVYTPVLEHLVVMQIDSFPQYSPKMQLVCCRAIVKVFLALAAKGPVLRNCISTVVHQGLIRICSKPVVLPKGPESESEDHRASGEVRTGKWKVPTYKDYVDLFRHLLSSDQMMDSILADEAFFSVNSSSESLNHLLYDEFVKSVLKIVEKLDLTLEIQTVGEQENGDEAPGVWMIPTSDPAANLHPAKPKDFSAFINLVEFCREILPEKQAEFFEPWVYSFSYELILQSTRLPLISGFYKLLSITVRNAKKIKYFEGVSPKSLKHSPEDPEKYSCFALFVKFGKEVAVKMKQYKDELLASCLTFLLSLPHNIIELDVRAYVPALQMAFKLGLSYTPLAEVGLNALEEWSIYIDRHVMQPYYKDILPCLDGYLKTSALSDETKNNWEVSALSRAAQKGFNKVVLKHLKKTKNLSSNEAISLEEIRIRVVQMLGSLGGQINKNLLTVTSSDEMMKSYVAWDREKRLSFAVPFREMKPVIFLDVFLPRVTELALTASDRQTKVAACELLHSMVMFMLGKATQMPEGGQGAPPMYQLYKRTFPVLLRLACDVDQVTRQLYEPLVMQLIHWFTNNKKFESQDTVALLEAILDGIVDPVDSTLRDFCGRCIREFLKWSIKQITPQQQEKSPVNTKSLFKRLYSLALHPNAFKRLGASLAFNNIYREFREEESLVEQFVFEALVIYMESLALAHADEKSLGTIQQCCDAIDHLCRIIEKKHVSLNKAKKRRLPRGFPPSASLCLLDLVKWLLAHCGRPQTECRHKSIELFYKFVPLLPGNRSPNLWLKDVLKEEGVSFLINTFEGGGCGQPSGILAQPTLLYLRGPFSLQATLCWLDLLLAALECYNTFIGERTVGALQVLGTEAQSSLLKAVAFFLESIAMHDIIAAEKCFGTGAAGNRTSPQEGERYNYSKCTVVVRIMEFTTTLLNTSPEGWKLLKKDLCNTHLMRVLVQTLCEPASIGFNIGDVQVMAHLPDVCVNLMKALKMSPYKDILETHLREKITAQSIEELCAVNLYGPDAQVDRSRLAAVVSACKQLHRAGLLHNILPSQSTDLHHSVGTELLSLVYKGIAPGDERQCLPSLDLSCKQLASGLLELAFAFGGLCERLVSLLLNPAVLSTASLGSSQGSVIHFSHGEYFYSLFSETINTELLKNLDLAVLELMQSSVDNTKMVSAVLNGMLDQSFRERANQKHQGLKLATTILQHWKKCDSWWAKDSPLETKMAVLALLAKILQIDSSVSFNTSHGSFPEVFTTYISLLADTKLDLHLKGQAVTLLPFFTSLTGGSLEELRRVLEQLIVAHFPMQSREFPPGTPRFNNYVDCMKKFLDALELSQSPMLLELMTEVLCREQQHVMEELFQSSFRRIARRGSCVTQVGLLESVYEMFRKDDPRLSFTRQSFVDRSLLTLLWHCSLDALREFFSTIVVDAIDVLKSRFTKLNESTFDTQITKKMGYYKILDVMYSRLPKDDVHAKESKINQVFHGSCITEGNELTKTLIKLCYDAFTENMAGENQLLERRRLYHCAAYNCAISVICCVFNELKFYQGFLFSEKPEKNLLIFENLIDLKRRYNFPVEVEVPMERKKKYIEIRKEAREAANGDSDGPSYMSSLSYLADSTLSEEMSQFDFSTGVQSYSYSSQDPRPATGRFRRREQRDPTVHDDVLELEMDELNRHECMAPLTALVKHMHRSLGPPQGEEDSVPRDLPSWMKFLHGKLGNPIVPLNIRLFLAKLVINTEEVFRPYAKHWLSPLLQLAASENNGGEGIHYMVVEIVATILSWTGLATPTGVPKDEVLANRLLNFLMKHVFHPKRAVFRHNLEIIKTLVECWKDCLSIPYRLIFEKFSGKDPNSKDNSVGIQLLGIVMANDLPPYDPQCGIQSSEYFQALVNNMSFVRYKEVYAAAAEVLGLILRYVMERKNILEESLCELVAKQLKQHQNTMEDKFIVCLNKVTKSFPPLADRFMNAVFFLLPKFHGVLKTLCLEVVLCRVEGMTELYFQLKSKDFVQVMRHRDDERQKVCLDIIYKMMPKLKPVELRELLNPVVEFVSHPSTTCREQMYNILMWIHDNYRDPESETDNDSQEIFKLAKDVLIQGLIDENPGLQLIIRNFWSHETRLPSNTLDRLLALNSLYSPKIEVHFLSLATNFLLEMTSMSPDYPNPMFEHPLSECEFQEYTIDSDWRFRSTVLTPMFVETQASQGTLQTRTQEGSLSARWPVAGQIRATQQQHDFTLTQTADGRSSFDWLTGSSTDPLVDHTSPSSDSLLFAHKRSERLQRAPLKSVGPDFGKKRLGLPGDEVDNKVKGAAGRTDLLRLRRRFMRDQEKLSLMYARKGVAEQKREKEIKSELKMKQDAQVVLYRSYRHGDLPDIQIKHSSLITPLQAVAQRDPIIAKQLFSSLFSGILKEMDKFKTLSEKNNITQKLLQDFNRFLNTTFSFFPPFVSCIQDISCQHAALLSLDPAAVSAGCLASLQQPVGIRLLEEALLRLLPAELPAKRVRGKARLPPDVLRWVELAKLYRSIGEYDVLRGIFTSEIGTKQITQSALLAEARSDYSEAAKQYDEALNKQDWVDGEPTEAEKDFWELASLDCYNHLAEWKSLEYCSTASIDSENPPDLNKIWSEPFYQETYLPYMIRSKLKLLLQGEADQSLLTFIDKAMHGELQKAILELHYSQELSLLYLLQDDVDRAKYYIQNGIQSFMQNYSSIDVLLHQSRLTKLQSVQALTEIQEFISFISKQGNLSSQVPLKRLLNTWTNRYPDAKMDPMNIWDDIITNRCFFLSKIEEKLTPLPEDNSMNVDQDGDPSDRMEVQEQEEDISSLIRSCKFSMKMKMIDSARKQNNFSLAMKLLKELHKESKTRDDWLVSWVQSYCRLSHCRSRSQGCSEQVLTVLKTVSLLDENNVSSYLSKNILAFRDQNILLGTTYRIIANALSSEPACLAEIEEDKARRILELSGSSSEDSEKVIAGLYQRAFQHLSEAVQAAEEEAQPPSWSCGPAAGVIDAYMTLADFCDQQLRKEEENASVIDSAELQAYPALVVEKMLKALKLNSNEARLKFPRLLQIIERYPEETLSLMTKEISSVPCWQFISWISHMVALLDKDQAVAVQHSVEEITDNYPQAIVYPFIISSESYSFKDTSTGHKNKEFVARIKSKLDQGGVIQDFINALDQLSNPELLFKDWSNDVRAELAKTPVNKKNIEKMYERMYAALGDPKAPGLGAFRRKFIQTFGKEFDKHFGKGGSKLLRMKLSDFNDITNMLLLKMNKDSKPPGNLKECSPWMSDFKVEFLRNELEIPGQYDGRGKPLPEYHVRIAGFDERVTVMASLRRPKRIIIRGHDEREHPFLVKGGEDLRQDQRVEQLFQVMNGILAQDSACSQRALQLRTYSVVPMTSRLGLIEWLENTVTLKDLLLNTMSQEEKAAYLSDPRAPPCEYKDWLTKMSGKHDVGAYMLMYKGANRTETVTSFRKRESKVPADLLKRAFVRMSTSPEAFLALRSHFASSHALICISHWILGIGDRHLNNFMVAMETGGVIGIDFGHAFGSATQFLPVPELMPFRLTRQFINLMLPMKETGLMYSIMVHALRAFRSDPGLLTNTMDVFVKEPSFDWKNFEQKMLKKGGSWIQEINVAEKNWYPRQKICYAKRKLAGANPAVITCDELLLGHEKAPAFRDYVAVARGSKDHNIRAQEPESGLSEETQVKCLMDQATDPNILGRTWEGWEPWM
UniProt P09874: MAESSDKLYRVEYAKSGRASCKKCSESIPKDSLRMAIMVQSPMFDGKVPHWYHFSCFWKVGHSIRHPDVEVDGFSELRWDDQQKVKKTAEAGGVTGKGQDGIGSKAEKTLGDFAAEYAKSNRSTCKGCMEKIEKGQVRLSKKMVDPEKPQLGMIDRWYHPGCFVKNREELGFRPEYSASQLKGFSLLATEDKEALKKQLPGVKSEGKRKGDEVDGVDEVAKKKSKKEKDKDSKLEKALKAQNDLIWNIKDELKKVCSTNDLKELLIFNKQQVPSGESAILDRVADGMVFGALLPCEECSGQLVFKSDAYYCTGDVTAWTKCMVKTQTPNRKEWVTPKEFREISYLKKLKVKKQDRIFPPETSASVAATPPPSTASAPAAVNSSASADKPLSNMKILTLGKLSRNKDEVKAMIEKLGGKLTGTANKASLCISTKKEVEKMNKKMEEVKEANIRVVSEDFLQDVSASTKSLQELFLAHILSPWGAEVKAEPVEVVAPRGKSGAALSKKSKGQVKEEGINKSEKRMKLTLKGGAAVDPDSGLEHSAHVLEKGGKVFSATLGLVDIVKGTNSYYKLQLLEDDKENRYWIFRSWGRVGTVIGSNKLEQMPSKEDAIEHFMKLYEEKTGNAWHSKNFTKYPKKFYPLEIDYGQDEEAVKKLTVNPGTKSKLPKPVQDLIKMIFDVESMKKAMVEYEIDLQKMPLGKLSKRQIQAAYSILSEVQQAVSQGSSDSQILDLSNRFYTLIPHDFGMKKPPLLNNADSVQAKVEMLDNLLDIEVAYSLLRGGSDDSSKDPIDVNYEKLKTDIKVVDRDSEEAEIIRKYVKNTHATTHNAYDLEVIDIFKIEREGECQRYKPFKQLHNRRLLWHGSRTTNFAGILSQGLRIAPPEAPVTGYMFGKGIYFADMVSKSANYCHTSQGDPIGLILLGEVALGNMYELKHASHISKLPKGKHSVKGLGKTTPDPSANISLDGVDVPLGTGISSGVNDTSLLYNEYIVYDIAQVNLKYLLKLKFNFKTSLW
UniProt Q13426: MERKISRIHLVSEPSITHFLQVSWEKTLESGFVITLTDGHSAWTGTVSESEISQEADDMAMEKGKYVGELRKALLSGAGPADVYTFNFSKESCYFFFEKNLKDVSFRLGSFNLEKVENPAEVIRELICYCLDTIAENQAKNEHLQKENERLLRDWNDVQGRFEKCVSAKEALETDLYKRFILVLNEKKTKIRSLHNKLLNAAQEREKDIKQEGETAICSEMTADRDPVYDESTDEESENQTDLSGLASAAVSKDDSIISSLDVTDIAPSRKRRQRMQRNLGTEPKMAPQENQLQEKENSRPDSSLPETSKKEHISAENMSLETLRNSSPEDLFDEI

Tests used:
[1] = molecular target: FLAG-NEIL1 (human) (UniProt Q96FI4); test: co-IP; FLAG M2 antibody agarose, 3 h at 4°C, from chromatin or nuclear lysates of HEK293 (also U2OS) cells after degradation of nucleic acids; washed with TBS; immunoblot; cells with or without irradiation (3 Gy) or bleomycin
[2] = molecular target: FLAG-NEIL2 (human) (UniProt Q969S2); test: as above
[3] = molecular target: NEIL1 C-terminal domain (CTD) deletion mutant (N311)-FLAG (human) (UniProt Q96FI4); test: as above
[4] = molecular target: SAF-A-FLAG (WT) (human) (UniProt Q00839); test: as above
[5] = molecular target: NEIL1, endogenous (human (endogenous in HEK293 and U2OS)) (UniProt Q96FI4); test: co-IP; endogenous co-IP with NEIL1 antibody, with or without irradiation
[6] = molecular target: FLAG-tagged non-phosphorylable S59A mutant of SAF-A (human) (UniProt Q00839); test: proximity ligation; Duolink PLA in fixed HEK293 cells, with or without 3 Gy X-rays; NEIL1 (rabbit) and FLAG (mouse) or Ku antibodies
[7] = molecular target: SAF-A-FLAG (WT) (human) (UniProt Q00839); test: as above
[8] = molecular target: His-tagged WT SAF-A (human) (UniProt Q00839)
[9] = molecular target: FLAG-tagged N-terminal deletion mutant APE1 (NΔ33) (human) (UniProt P27695); test: co-IP; FLAG M2 antibody agarose, 3 h at 4°C, from chromatin or nuclear lysates of HEK293 (also U2OS) cells after degradation of nucleic acids; washed with TBS; immunoblot; cells with or without irradiation (3 Gy) or bleomycin
[10] = molecular target: FLAG-(WT)-APE1 (human) (UniProt P27695); test: as above
[11] = molecular target: His-tagged WT SAF-A (human) (UniProt Q00839); test: pull-down; His-tagged WT or S59D SAF-A bound to Ni-NTA beads, mixed with full-length NEIL1 or Ku in TBS, 4 h at 4°C, five washes, immunoblot; both purified
[12] = molecular target: His-tagged SAF-A S59D mutant (human) (UniProt Q00839); test: as above

Substance: DNA-PKcs, endogenous (from UniProt P78527 1-4128) (enzyme)
- binding [1]: binds
- binding [2]: binds
- binding [3]: no binding
- binding [4]: binds
- binding [5]: binds

Substance: XRCC1, endogenous (from UniProt P18887 1-633)
- binding [5]: binds

Substance: NEIL1, endogenous (from UniProt Q96FI4 1-390) (enzyme)
- binding [6]: binds
- binding [7]: binds

Substance: Ku (Ku70/Ku80 heterodimer), endogenous (from UniProt P12956 1-609; P13010 1-732) (complex)
- binding [2]: binds

Substance: NEIL1 C-terminal peptide (residues 312-349) (from UniProt Q96FI4 312-349)
- binding [8]: binds

Substance: PARP1, endogenous (from UniProt P09874 1-1014) (enzyme)
- binding [9]: no binding

Substance: XRCC4, endogenous (from UniProt Q13426 1-336)
- binding [1]: no binding
- binding [10]: no binding

Substance: untagged full-length NEIL1 (from UniProt Q96FI4 1-390) (enzyme)
- binding [11]: binds
- binding [12]: binds

Substance: PNKP, endogenous (from UniProt Q96T60 1-521) (enzyme)
- binding [1]: binds
- binding [5]: binds
